Experimental data as given in PubChem BioAssay AID1745853 (National Center for Advancing Translational Sciences (NCATS), 2022).
The other results are listed elsewhere or left out. Shown are side measurements of this screen, not its main read-out; they come without a call.

Tests used:
Test in all cases: Primary Screen for Target Class Profiling of Small Molecule Inhibitors of Methyltransferases
[1] = target: Guanidinoacetate N-methyltransferase (Homo sapiens) (UniProt Q14353); details: purified enzyme, MTase-Glo SAH luminescence; measured here: GAMT inhibition; at 40 µM; stronger effect = lower value
Outline: (§1)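 Each enzyme was assayed with SAM and its substrate. SAH formation detected by MTase-Glo luminescence; single-point 40 uM screen[…].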

[2] = target: Nicotinamide N-methyltransferase (Homo sapiens) (UniProt P40261); details: purified enzyme, MTase-Glo SAH luminescence; measured here: NNMT inhibition; at 40 µM; stronger effect = lower value
Outline: as §1

[3] = target: Phenylethanolamine N-methyltransferase (Homo sapiens) (UniProt P11086); details: purified enzyme, MTase-Glo SAH luminescence; measured here: PNMT inhibition; at 40 µM; stronger effect = lower value
Outline: as §1

[4] = target: Glycine N-methyltransferase (Homo sapiens) (UniProt Q14749); details: purified enzyme, MTase-Glo SAH luminescence; measured here: GNMT inhibition; at 40 µM; stronger effect = lower value
Outline: as §1

[5] = target: Histamine N-methyltransferase (Homo sapiens) (UniProt P50135); details: purified enzyme, MTase-Glo SAH luminescence; measured here: HNMT inhibition; at 40 µM; stronger effect = lower value
Outline: as §1
On the % scale 0 is the no-effect control and ±100 the full control effect.

SMILES | activity change, negative = inhibition [1] | activity change, negative = inhibition [2] | activity change, negative = inhibition [3] | activity change, negative = inhibition [4] | activity change, negative = inhibition [5]
CC(C)(C)n1nc(Cc2cccc([N+](=O)[O-])c2)c2c(N)ncnc21 | -6.44% | -46.8% | -14.1% | – | –
OC[C@@H]1CNC[C@H]1C1CCN(Cc2ccncc2F)CC1 | -3.45% | -4.3% | -18% | -2.49% | -0.65%
C=C1C(=O)OC2/C=C(\C)CC/C=C(\C=O)C(OC)C(OC(=O)C(C)CC)C12 (stereo unspecified) | 1.37% | -8.68% | 0.79% | 4.1% | 6.18%
CCOC(=O)c1cc2n(n1)CC(C)(C(=O)NC1CCC(C)CC1)N(Cc1ccc(C)cc1)C2=O (stereo unspecified) | 1.57% | 0.198% | 3.49% | 3.24% | 5.17%
CCc1noc([C@@H]2CC(F)(F)CN2C(=O)c2ccncc2F)n1 | 0.526% | -2.03% | -0.854% | -0.662% | 2.38%
CC[C@H](NC(=O)c1c(O)c(-c2ccccc2)nc2ccccc12)c1ccccc1 | -1.4% | -18.1% | -9.06% | 2.14% | 1.73%
Cc1ccc(-c2cc(-c3cccnc3)nc3c(C)noc23)c(C)c1 | -6.78% | -21.1% | -7.87% | -8.36% | -7.05%
COc1ccc(-c2nnc3n(Cc4ccccc4)c(=O)c4ccccc4n23)c(O)c1 | 4.28% | 1.79% | -2.24% | -10.9% | -0.246%
CCCn1c(=O)c2cc(F)ccc2n2c(SCc3ccc(Cl)cc3)nnc12 | 2.78% | -14.2% | -3.52% | -13.6% | 1.67%
COc1cc(OC)cc(N2C(=O)c3cc(C(C)(C)C)nn3CC2(C)C(=O)NCc2ccccc2)c1 (stereo unspecified) | 1.39% | 3.98% | -0.788% | 4.18% | 1.08%
Cc1cnc(Nc2ccc(F)cc2Cl)nc1-c1c[nH]c(C(=O)NC(CO)c2cccc(Cl)c2)c1 (stereo unspecified) | 2.26% | -24% | -19.4% | -5.28% | 7.49%
CC(=O)NCCC(=O)N1CCCCC1C(=O)Nc1ccc(-n2nc(C)cc2C)cc1 (stereo unspecified) | -11.2% | -10.9% | -11.1% | -3.38% | -5.33%
C[C@@H](Oc1cc(-n2cnc3ccc(OC4CCN(C)CC4)cc32)sc1C(N)=O)c1ccccc1Cl | -96.6% | -98.4% | -97.7% | – | –
COCCn1nnc2cc(S(=O)(=O)N(C)CC(=O)N3CCOCC3)ccc21 | 0.202% | 8.95% | 7.93% | -0.425% | 8.89%
CC(C)=CCC(O)/C(C)=C/CO[C@@H]1O[C@H](CO)[C@@H](O)[C@H](O)[C@H]1O (stereo partly specified) | -5.21% | -14.9% | -13% | -3.08% | 1.85%
CC(C)(C)c1ccc(C(=O)CCCN2CCC(OC(c3ccccc3)c3ccccc3)CC2)cc1 | 7.65% | -13.2% | -0.466% | -0.871% | -16.7%
Cc1cc2[nH]c(=O)[nH]c2cc1S(=O)(=O)Nc1ccc(F)cc1 | 0% | 2.18% | 1.97% | 9.49% | 14.9%
Cc1nonc1Cc1nc(C2CCOCC2)nn1CC1COCCO1 (stereo unspecified) | 1.48% | 1.92% | -0.206% | -2.85% | 0.424%
COc1ccc(/C=C/C(=O)O[C@H]2[C@@H]3C=CO[C@@H](O[C@@H]4O[C@H](CO)[C@@H](O)[C@H](O)[C@H]4O)[C@@H]3[C@@]3(CO)O[C@@H]23)cc1O | 4.75% | -8.18% | 2.72% | -5.42% | 2.71%
CCc1ccccc1NC(=O)CSc1nnc2n(Cc3ccc(C)cc3)c(=O)c3ccccc3n12 | -0.072% | -7.63% | -5.37% | -6.06% | -1.57%

SMILES | activity change, negative = inhibition [1] | activity change, negative = inhibition [2] | activity change, negative = inhibition [3] | activity change, negative = inhibition [4] | activity change, negative = inhibition [5]
CCCn1c(=O)c2cc(Cl)ccc2n2c(=O)n(CC(=O)Nc3ccc4c(c3)OCCO4)nc12 | 1.92% | 0.22% | -0.473% | -0.765% | 5.2%
O=C(NO)c1cnc(N2CCN(S(=O)(=O)c3ccc4ccccc4c3)CC2)nc1 | 1.03% | -13.7% | -2.09% | -1.34% | 1.27%
Cc1ccc(CN2C(=O)c3cc(-c4ccccc4)nn3CC2(C)C(=O)NCc2ccccc2)cc1 (stereo unspecified) | 4.24% | 4% | 2.77% | 3.97% | 7.01%
CC1(C(=O)NC2CCCCC2)Cn2c(cc3ccccc32)C(=O)N1Cc1ccccc1Cl (stereo unspecified) | -0.715% | -4.22% | -2.55% | -5.81% | -1.59%
CCCn1c(=O)c2ccc(C(=O)NC3CCCC3)cc2n2c(SCC(=O)c3ccc(F)cc3)nnc12 | 0% | -3.43% | 3.55% | 7.77% | 7.13%
Cc1ccc2c(c1)C1C=CCC1C(c1ccccc1Cl)N2 (stereo unspecified) | -1.77% | -1.67% | -9.32% | -6.88% | -7.63%
COC1CCN(C(=O)Nc2ccccc2)CC(=O)N(C)c2ccccc21 (stereo unspecified) | -6.83% | -8.29% | -37.1% | -6.72% | -4.04%
CC(C)OCCCNC(=O)CNC(=O)C1(C)Cn2c(cc3ccccc32)C(=O)N1C (stereo unspecified) | 4.21% | -7.29% | -1.43% | -8.96% | -8.63%
O=[S+]1([O-])[C@@H](c2ccccc2)[C@H](COCc2ccccc2)CN1C1CC1 | -4.97% | -8.48% | 10.2% | -6.12% | -1.86%
CCOc1ccccc1CN1C(=O)CSc2c(c3ccccc3n2C)C1C(=O)NCCC(C)C (stereo unspecified) | 0% | -0.748% | 5.64% | 12.5% | 1.49%
CC(C)N1CCN(C(=O)c2csc(N3CCN(c4cccc(Cl)c4)CC3)n2)CC1 | -11.2% | -18% | -9.77% | -9.1% | -13.7%
CCCc1cc2c(-c3ccccc3)cc(=O)oc2cc1OCc1ccc(C(=O)O)o1 | 1.57% | -23% | -32.1% | -57.5% | -6.71%
Cn1c(Cn2ccnc2)nnc1C1CC(NC(=O)c2ccc(CO)o2)C1 (stereo unspecified) | -5.73% | -12.4% | -5.93% | -3.83% | -2.58%
Cc1noc(C)c1CC(=O)N1CC(=O)N(C2CCCCC2)CC(OCc2ccccc2)C1 (stereo unspecified) | -9.64% | -11.7% | -7.2% | -5.72% | -2.83%
CCC(C)NC(=O)c1ccc2c(=O)n(C)c3nn(CC(=O)Nc4cc(F)ccc4F)c(=O)n3c2c1 (stereo unspecified) | 0% | -2.87% | 2.76% | 5.07% | 5.66%
CC(C)OCCCn1c(=O)c2ccccc2n2c(=O)n(Cc3ccccc3)nc12 | 3.83% | -2.05% | -0.509% | -4.69% | -3.21%
COc1ccc(N2C(=O)c3ccc(-c4ccco4)n3CC2(C)C(=O)NCc2ccc(Cl)cc2)cc1 (stereo unspecified) | 1.87% | -5.23% | -2.24% | -17.2% | 0.614%
COCc1ccc(C(=O)N2CCN(CCO)CC(O)C2)cc1 (stereo unspecified) | -0.411% | -2.77% | 14.6% | -4.16% | 0.98%
CC(C)CCNC(=O)C1(C)Cn2c(cc3ccccc32)C(=O)N1CCc1ccc(Cl)cc1 (stereo unspecified) | 1.41% | 0.042% | 3.68% | 7.93% | 10.8%
